“And” between values parts separate entries of the source, which are not always exact repeats. Equal values may be shown once. In all, about 60,000 compounds went through this assay and about 65 (0.1%) were called active. The shares of active, inactive and inconclusive entries below differ from those in the screen. The call rests on the fitted dose curve; in most records, active means well fitted inhibition curve with a large enough effect; inconclusive means small, poorly fitted or top-dose-only effect; inactive means no such curve, though single readings can be large or run the other way. Potencies beside an inconclusive call are fits to weak or partial responses and may not hold up.
These compounds were tested against Ubiquitin carboxyl-terminal hydrolase 2 (Homo sapiens) (UniProt O75604) (assay: qHTS Assay for Inhibitors of Ubiquitin-specific Protease USP2a). Conditions: USP2a enzymatic assay; Potency: qHTS inhibition; activity change, negative = inhibition: at 38.3 µM (top of the series).
Sequence of UniProt O75604 (O75604 whole entry, looked up): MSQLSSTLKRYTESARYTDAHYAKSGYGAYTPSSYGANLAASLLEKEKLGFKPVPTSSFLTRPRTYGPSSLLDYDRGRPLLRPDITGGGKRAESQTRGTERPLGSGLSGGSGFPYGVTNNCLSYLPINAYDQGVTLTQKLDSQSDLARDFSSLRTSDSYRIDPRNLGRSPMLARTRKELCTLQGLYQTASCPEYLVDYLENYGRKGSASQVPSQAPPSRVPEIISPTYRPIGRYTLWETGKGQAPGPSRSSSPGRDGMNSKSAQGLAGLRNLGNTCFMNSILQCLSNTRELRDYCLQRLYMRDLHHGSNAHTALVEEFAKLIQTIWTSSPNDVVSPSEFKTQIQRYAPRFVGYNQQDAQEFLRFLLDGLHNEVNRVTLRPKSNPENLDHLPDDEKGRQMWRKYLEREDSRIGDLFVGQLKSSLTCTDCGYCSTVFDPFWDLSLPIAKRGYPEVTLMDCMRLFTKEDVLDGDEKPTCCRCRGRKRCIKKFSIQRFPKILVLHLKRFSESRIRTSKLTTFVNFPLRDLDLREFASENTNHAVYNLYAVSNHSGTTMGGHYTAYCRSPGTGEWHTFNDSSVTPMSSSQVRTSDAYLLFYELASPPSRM
Outline: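 USP2 core (20nM final) preincubated 30 min RT with compound, then Ub-PLA2 20nM and NBD C6-HPC 20uM final added; buffer 20mM Tris-HCl pH 8.0, 2mM CaCl2. Fluorescence Ex 460/Em 535 read at 0 and 2.5 h; normalized to NEM.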
For `COc1ccc(S(=O)(=O)N2CCCCCC2)cc1C(=O)OCc1c(C)noc1C`, the Potency was “inactive”. For `CC[C@@H]1Cc2cc(O)ccc2C2=C1c1ccc(O)cc1C[C@H]2CC`, the Potency was active: 25.1 µM. In the case of `Cc1nc(NCCCn2ccnc2)c2ccccc2n1`, the Potency is reported as “inactive”. `CCc1ccc(-c2nnn(Cc3nc4ccccc4s3)n2)cc1` was tested, and the Potency was inconclusive: 12.6 µM [inhibitor, single point]. For `Cc1noc(C)c1C(=O)N1CCC2(CCCN(C(c3ccccc3)c3ccccc3)C2)CC1`, the Potency was inconclusive: 25.1 µM [inhibitor, single point]. With `O=C(OC1Cc2c(O)cc(O)cc2OC1c1cc(O)c(O)c(O)c1-c1c(C2Oc3cc(O)cc(O)c3CC2OC(=O)c2cc(O)c(O)c(O)c2)cc(O)c(O)c1O)c1cc(O)c(O)c(O)c1` (stereo unspecified) the Potency was inconclusive: 12.6 µM [inhibitor, single point]. For `Cc1ccc(-c2nnc(CSc3nnc(COc4ccccc4)n3-c3ccc(C)cc3)o2)cc1`, the Potency was inconclusive: 25.1 µM [inhibitor, single point]. For `CN1CCN(c2nc(-c3ccoc3)nc3ccccc23)CC1`, the Potency was “inactive”. With `N#Cc1ccccc1-c1ccc2ncnc(NC3CC3)c2c1` the Potency was inconclusive: 6.31 µM [inhibitor, partial curve]. For `CCOc1ccc(-c2[nH]ncc2Oc2cccc(OC)c2)c(O)c1`, the Potency was inconclusive: 25.1 µM [inhibitor, single point]. With `O=C(c1cc(C(F)(F)F)cc(C(F)(F)F)c1)N1CCC2(CCCN(Cc3ccccc3)C2)CC1` the Potency was inconclusive: 25.1 µM [inhibitor, single point]. For `COCCn1c(=O)c(-c2ccc(F)cc2)nc2cncnc21`, the Potency was inconclusive: 12.6 µM [inhibitor, single point]. `O=C1OCCC1Sc1nnc(-c2ccccc2)o1` (stereo unspecified) was tested, and the Potency was “inactive”. For `CSc1nsc(SCC(=O)Nc2c(C)n(C)n(-c3ccccc3)c2=O)n1`, the Potency was “inactive”. In the case of `Clc1ccc([C@H](Cn2ccnc2)OCc2c(Cl)cccc2Cl)c(Cl)c1`, the Potency is reported as inconclusive: 12.6 µM [inhibitor, single point]. In the case of `Clc1ccccc1C(c1ccccc1)(c1ccccc1)n1ccnc1`, the Potency is reported as inconclusive: 31.6 µM [inhibitor, single point] and inconclusive: 12.6 µM [inhibitor, single point]. With `CCN1/C(=C/C(C)=O)Sc2ccc(OC)cc21` the Potency was “inactive”. With `CCCCOc1ccccc1NC(=O)CSc1nnnn1C(C)(C)C` the Potency was inconclusive: 15.8 µM [inhibitor, single point]. With `Cc1cc(C)n2nc(SCC(=O)Nc3c(C)nn(-c4ccccc4)c3C)nc2n1` the Potency was “inactive”. In the case of `Cc1cccc(CNc2nc(-c3cccnc3)nc3ccccc23)c1`, the Potency is reported as inconclusive: 25.1 µM [inhibitor, single point]. With `Cc1c(C(=O)O)sc2ncnc(N3CCCCC3C)c12` (stereo unspecified) the Potency was inconclusive: 15.8 µM [inhibitor, single point]. `c1ccc(CNc2ncnc3ccc(-c4ccc5c(c4)OCO5)cc23)cc1` was tested, and the Potency was inconclusive: 15.8 µM [inhibitor, single point]. For `O=C(Oc1cccc(-n2cnnn2)c1)C1CCCCC1`, the Potency was inconclusive: 5.01 µM [inhibitor, full curve]. In the case of `COc1cc(C(=O)NCCc2ccc(S(N)(=O)=O)cc2)cc(OC)c1OC`, the Potency is reported as inconclusive: 12.6 µM [inhibitor, single point]. With `CCNc1nc(SCc2ccccc2)nc(N2CCOCC2)n1` the activity change, negative = inhibition was inconclusive: -30.9% [inhibitor]. `COc1ccccc1CNc1ccnc(-c2ccc(N(C)C)cc2)n1` was tested, and the Potency was inconclusive: 20 µM [inhibitor, single point]. With `CCc1ccc(C2=Nn3c(nnc3-c3cccs3)SC2)cc1` the Potency was inconclusive: 25.1 µM [inhibitor, single point]. `C=CCc1cccc(CNc2nc3ccccc3n2CC)c1O` was tested, and the Potency was inconclusive: 25.1 µM [inhibitor, single point]. With `O=C(NCCc1c[nH]c2ccccc12)C(F)(F)C(F)F` the Potency was inconclusive: 12.6 µM [inhibitor, single point]. In the case of `CC(C)c1ccc(-c2nnn(CCC(=O)O)n2)cc1`, the Potency is reported as inconclusive: 12.6 µM [inhibitor, partial curve]. In the case of `Cc1ccc(O)c(-c2cc(-c3ccccc3C)[nH]n2)c1`, the Potency is reported as inconclusive: 25.1 µM [inhibitor, single point]. `COc1ccc(-c2cc(-c3c(O)c(OC)c4occc4c3OC)[nH]n2)cc1OC` was tested, and the Potency was inconclusive: 25.1 µM [inhibitor, single point]. `CC(=O)Nc1nc(C)c(-c2csc(Nc3ccc(O)cc3)n2)s1` was tested, and the Potency was inconclusive: 15.8 µM [inhibitor, single point]. With `CC(=O)N1CCN(c2ccc(NC(=O)c3ccc4c(c3)OCCO4)cc2)CC1` the Potency was “inactive”. In the case of `CCCCOn1c(C)c(C(=O)OCC)c2c3no[n+]([O-])c3ccc21`, the Potency is reported as “inactive”. In the case of `COc1ccc(NC(=O)Cc2cccs2)c(OC)c1`, the Potency is reported as inconclusive: 3.98 µM [inhibitor, single point]. In the case of `Cc1nnc(NC(=O)c2ccc(S(=O)(=O)N3CCCCCC3)cc2)o1`, the Potency is reported as “inactive”. With `O=C(Cn1c(=O)[nH]n(-c2ccccc2)c1=O)N1CCCc2ccccc21` the Potency was “inactive”. For `Cc1ccc2cc3cc(C(=O)N(C)C4CCCCC4)oc3nc2c1`, the Potency was “inactive”. For `CC1(C)Cc2c(sc3nc(SCC(=O)N4CCOCC4)nc(N)c23)CO1`, the Potency was “inactive”. For `Cc1nnc(SCC(=O)Nc2nc(-c3ccccc3)cs2)n1N`, the Potency was inconclusive: 12.6 µM [inhibitor, single point]. `O=C(Cc1ccc2cccnc2c1)c1ccc(O)cc1O` was tested, and the Potency was “inactive”. With `O=C(CCCCCCCCCCCCC1CCCC1)Nc1ccc(S(=O)(=O)c2ccc(NC(=O)CCCCCCCCCCCCC3CCCC3)cc2)cc1` the Potency was active: 25.1 µM. For `CCc1cc2c(NCc3ccco3)ncnc2s1`, the Potency was “inactive”. With `CCOc1ccc(S(=O)(=O)N(CC(=O)O)c2ccc(C)cc2)cc1` the Potency was inconclusive: 12.6 µM [inhibitor, single point]. With `COc1cccc(NC(=O)N(CCCN2CCOCC2)C(C)c2cc3cccc(OC)c3o2)c1` (stereo unspecified) the Potency was “inactive”.

— PubChem BioAssay AID927 (National Center for Advancing Translational Sciences (NCATS), 2007)
Further: nearly all actives have a fitted effect of over 60% in size.
Potency means the concentration at half of the fitted maximal effect; tags describe the fitted curve by direction and shape.
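Wherever activity change, negative = inhibition is given: plate controls were DMSO for no effect and NEM full inhibition control for full effect.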
